Measured values from the supplement of paper PMC8728848.
Some of the results follow.

Key:
Test in all cases: glycan array binding signal (z-score within array); higher = stronger binding
Details in all cases: glycan notation: IUPAC condensed, linker removed
[1] = target: Neu5Ac(a2-3)Gal(b1-3)[Fuc(a1-4)]GlcNAc(b1-3)Gal(b1-4)[Fuc(a1-3)]GlcNAc
Summary of the method: (§1)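 Glycan array data were curated from 3228 arrays in the Consortium for Functional Glycomics database and kept only where the protein sequence was available. Glycan names were converted to IUPAC-condensed notation, and columns mapping to the same glycan were averaged. The binding signal is a within-array Z-score, averaged across arrays of the same protein sequence at different concentrations or buffers and across linkers. Negative Z-scores can be read as non-binding.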

[2] = target: Neu5Ac(a2-3)Gal(b1-3)[Neu5Ac(a2-3)Gal(b1-4)]GlcNAc
Summary of the method: as §1

[3] = target: Neu5Ac(a2-3)Gal(b1-3)[Neu5Ac(a2-6)]GalNAc
Summary of the method: as §1

[4] = target: Neu5Ac(a2-3)Gal(b1-3)[Neu5Ac(a2-6)]GlcNAc(b1-3)[Fuc(a1-3)[Gal(b1-4)]GlcNAc(b1-6)]Gal(b1-4)Glc
Summary of the method: as §1

Neu5Ac(a2-3)Gal(b1-4)Glc = target: Neu5Ac(a2-3)Gal(b1-4)Glc
Summary of the method: as §1

[5] = target: Neu5Ac(a2-3)Gal(b1-4)GlcNAc
Summary of the method: as §1

[6] = target: Neu5Ac(a2-3)Gal(b1-4)GlcNAc(b1-2)Man
Summary of the method: as §1

[7] = target: Neu5Ac(a2-3)Gal(b1-4)GlcNAc(b1-2)Man(a1-3)[GlcNAc(b1-2)Man(b1-4)GlcNAc(b1-2)Man(a1-6)]Man(b1-4)GlcNAc(b1-4)GlcNAc
Summary of the method: as §1

[8] = target: Neu5Ac(a2-3)Gal(b1-4)GlcNAc(b1-2)Man(a1-3)[Neu5Ac(a2-3)Gal(b1-4)GlcNAc(b1-2)Man(a1-6)]Man(b1-4)GlcNAc(b1-4)[Fuc(a1-6)]GlcNAc
Summary of the method: as §1

[9] = target: Neu5Ac(a2-3)Gal(b1-4)GlcNAc(b1-2)Man(a1-3)[Neu5Ac(a2-6)Gal(b1-4)GlcNAc(b1-2)Man(a1-6)]Man(b1-4)GlcNAc(b1-4)GlcNAc
Summary of the method: as §1

[10] = target: Neu5Ac(a2-3)Gal(b1-4)GlcNAc(b1-2)[Neu5Ac(a2-3)Gal(b1-4)GlcNAc(b1-6)]Man(a1-6)[Neu5Ac(a2-3)Gal(b1-4)GlcNAc(b1-2)Man(a1-3)]Man(b1-4)GlcNAc(b1-4)GlcNAc
Summary of the method: as §1

[11] = target: Neu5Ac(a2-3)Gal(b1-4)GlcNAc(b1-3)Gal
Summary of the method: as §1

[12] = target: Neu5Ac(a2-3)Gal(b1-4)GlcNAc(b1-3)Gal(b1-3)GlcNAc
Summary of the method: as §1

[13] = target: Neu5Ac(a2-3)Gal(b1-4)GlcNAc(b1-3)Gal(b1-4)GlcNAc
Summary of the method: as §1

[14] = target: Neu5Ac(a2-3)Gal(b1-4)GlcNAc(b1-3)Gal(b1-4)GlcNAc(b1-3)Gal(b1-4)GlcNAc
Summary of the method: as §1

[15] = target: Neu5Ac(a2-3)Gal(b1-4)GlcNAc(b1-3)Gal(b1-4)[Fuc(a1-3)]GlcNAc
Summary of the method: as §1

[16] = target: Neu5Ac(a2-3)Gal(b1-4)GlcNAc(b1-3)GalNAc
Summary of the method: as §1

[17] = target: Neu5Ac(a2-3)Gal(b1-4)GlcNAc(b1-3)[Neu5Ac(a2-3)Gal(b1-4)GlcNAc(b1-6)]GalNAc
Summary of the method: as §1

[18] = target: Neu5Ac(a2-3)Gal(b1-4)GlcNAc(b1-6)GalNAc
Summary of the method: as §1

[19] = target: Neu5Ac(a2-3)Gal(b1-4)GlcNAc(b1-6)[Gal(b1-3)]GalNAc
Summary of the method: as §1

[20] = target: Neu5Ac(a2-3)Gal(b1-4)GlcNAc(b1-6)[Neu5Ac(a2-3)Gal(b1-3)]GalNAc
Summary of the method: as §1

[21] = target: Neu5Ac(a2-3)Gal(b1-4)GlcNAc6S
Summary of the method: as §1

[22] = target: Neu5Ac(a2-3)Gal(b1-4)[Fuc(a1-3)]GlcNAc
Summary of the method: as §1

[23] = target: Neu5Ac(a2-3)Gal(b1-4)[Fuc(a1-3)]GlcNAc(b1-3)Gal
Summary of the method: as §1

[24] = target: Neu5Ac(a2-3)Gal(b1-4)[Fuc(a1-3)]GlcNAc(b1-3)Gal(b1-4)GlcNAc
Summary of the method: as §1

[25] = target: Neu5Ac(a2-3)Gal(b1-4)[Fuc(a1-3)]GlcNAc(b1-3)Gal(b1-4)[Fuc(a1-3)]GlcNAc(b1-3)Gal(b1-4)[Fuc(a1-3)]GlcNAc
Summary of the method: as §1

[26] = target: Neu5Ac(a2-3)Gal(b1-4)[Fuc(a1-3)]GlcNAc(b1-3)GalNAc
Summary of the method: as §1

[27] = target: Neu5Ac(a2-3)Gal(b1-4)[Fuc(a1-3)]GlcNAc(b1-6)[Gal(b1-3)]GalNAc
Summary of the method: as §1

[28] = target: Neu5Ac(a2-3)Gal(b1-4)[Fuc(a1-3)]GlcNAc6S
Summary of the method: as §1

[29] = target: Neu5Ac(a2-3)Gal6S(b1-4)GlcNAc
Summary of the method: as §1

[30] = target: Neu5Ac(a2-3)Gal6S(b1-4)[Fuc(a1-3)]GlcNAc
Summary of the method: as §1

Neu5Ac(a2-3)GalNAc = target: Neu5Ac(a2-3)GalNAc
Summary of the method: as §1

[31] = target: Neu5Ac(a2-3)GalNAc(b1-4)GlcNAc
Summary of the method: as §1

[32] = target: Neu5Ac(a2-3)[GalNAc(b1-4)]Gal(b1-4)Glc
Summary of the method: as §1

[33] = target: Neu5Ac(a2-3)[GalNAc(b1-4)]Gal(b1-4)GlcNAc
Summary of the method: as §1

[34] = target: Neu5Ac(a2-3)[GalNAc(b1-4)]Gal(b1-4)GlcNAc(b1-3)GalNAc
Summary of the method: as §1

[35] = target: Neu5Ac(a2-3)[Neu5Ac(a2-6)]GalNAc
Summary of the method: as §1

Neu5Ac(a2-6)Gal = target: Neu5Ac(a2-6)Gal
Summary of the method: as §1

[36] = target: Neu5Ac(a2-6)Gal(b1-3)GlcNAc(b1-3)[Gal(b1-4)GlcNAc(b1-6)]Gal(b1-4)Glc
Summary of the method: as §1

Neu5Ac(a2-6)Gal(b1-4)Glc = target: Neu5Ac(a2-6)Gal(b1-4)Glc
Summary of the method: as §1

[37] = target: Neu5Ac(a2-6)Gal(b1-4)GlcNAc
Summary of the method: as §1

[38] = target: Neu5Ac(a2-6)Gal(b1-4)GlcNAc(b1-2)Man(a1-3)Man(b1-4)GlcNAc(b1-4)GlcNAc
Summary of the method: as §1

[39] = target: Neu5Ac(a2-6)Gal(b1-4)GlcNAc(b1-2)Man(a1-3)[Gal(b1-4)GlcNAc(b1-2)Man(a1-6)]Man(b1-4)GlcNAc(b1-4)GlcNAc
Summary of the method: as §1

[40] = target: Neu5Ac(a2-6)Gal(b1-4)GlcNAc(b1-2)Man(a1-3)[GlcNAc(b1-2)Man(a1-6)]Man(b1-4)GlcNAc(b1-4)GlcNAc
Summary of the method: as §1

B1: CIH1 (Colletotrichum higginsianum) (protein)
chain: LPQATPTTPTPTSASAAATISATSSPTCSPGPVIDYTVVSGDTLTIISQRFSSGICNIADASGITNPNFLSLGQVLQVPTYVCTPDNTSCLAKEGSDTCVEGGPATHTIVAGDTFFLVAQSLGLDVNALLAANEGVDPLLLQIGDVINIPVC
[1]
  glycan array binding signal (z-score): -0.074
[2]
  glycan array binding signal (z-score): -0.065
[3]
  glycan array binding signal (z-score): -0.075
[4]
  glycan array binding signal (z-score): -0.077
Neu5Ac(a2-3)Gal(b1-4)Glc
  glycan array binding signal (z-score): -0.071
[5]
  glycan array binding signal (z-score): -0.068
[6]
  glycan array binding signal (z-score): -0.049
[7]
  glycan array binding signal (z-score): -0.08
[8]
  glycan array binding signal (z-score): -0.029
[9]
  glycan array binding signal (z-score): -0.064
[10]
  glycan array binding signal (z-score): -0.064
[11]
  glycan array binding signal (z-score): -0.066
[12]
  glycan array binding signal (z-score): -0.062
[13]
  glycan array binding signal (z-score): -0.072
[14]
  glycan array binding signal (z-score): -0.063
[15]
  glycan array binding signal (z-score): -0.073
[16]
  glycan array binding signal (z-score): -0.049
[17]
  glycan array binding signal (z-score): -0.081
[18]
  glycan array binding signal (z-score): -0.078
[19]
  glycan array binding signal (z-score): -0.049
[20]
  glycan array binding signal (z-score): -0.054
[21]
  glycan array binding signal (z-score): -0.036
[22]
  glycan array binding signal (z-score): -0.069
[23]
  glycan array binding signal (z-score): -0.064
[24]
  glycan array binding signal (z-score): -0.067
[25]
  glycan array binding signal (z-score): -0.065
[26]
  glycan array binding signal (z-score): -0.08
[27]
  glycan array binding signal (z-score): -0.036
[28]
  glycan array binding signal (z-score): -0.061
[29]
  glycan array binding signal (z-score): -0.08
[30]
  glycan array binding signal (z-score): -0.072
Neu5Ac(a2-3)GalNAc
  glycan array binding signal (z-score): -0.046
[31]
  glycan array binding signal (z-score): -0.06
[32]
  glycan array binding signal (z-score): -0.067
[33]
  glycan array binding signal (z-score): -0.087
[34]
  glycan array binding signal (z-score): -0.105
[35]
  glycan array binding signal (z-score): -0.08
Neu5Ac(a2-6)Gal
  glycan array binding signal (z-score): -0.056
[36]
  glycan array binding signal (z-score): -0.054
Neu5Ac(a2-6)Gal(b1-4)Glc
  glycan array binding signal (z-score): -0.068
[37]
  glycan array binding signal (z-score): -0.069
[38]
  glycan array binding signal (z-score): -0.004
[39]
  glycan array binding signal (z-score): -0.065
[40]
  glycan array binding signal (z-score): -0.083
